Laboratory results from the supplement of paper PMC11417369.
The list shows a part of the results.

These sequences were tested on PfSIP2 AP2 domain 1 (GST-tagged) (assay: gcPBM binding intensity (ln(normalized median fluorescence intensity)); higher = stronger DNA binding).
Method in brief: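 An Agilent 4 × 180k array carrying primer-extended double-stranded 36-bp intergenic genomic probes and negative controls received GST-tagged P. falciparum DNA-binding domains expressed in E. coli, about 25 μg on average, for 1 h. The binding buffer contained 1× PBS, 1% milk, 0.2 mg/ml BSA, 0.5% salmon testes DNA and 0.03% Triton X-100. Binding intensity is the top Masliner-normalised natural-log median intensity across replicate spots of either probe orientation, read after Alexa488 anti-GST antibody staining and a 488 nm scan.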
“ACATGTCAAACATTTGCACACAAAAAAATAAAAATT [CACACA_site691]” was tested, and the “gcPBM binding intensity (ln)” value was 7.3.
“TATATACAAAAATGCACACGAAAAGTAATATATATA [CACACA_site4173]” was tested, and the “gcPBM binding intensity (ln)” value was 8.37.
For “TATATAAAAATCAATTGTACTTTTTTTTTTTTTTTT [XGTACX_site7327]”, the “gcPBM binding intensity (ln)” value was 7.22.
For “ATATATAAAATTATATGTACATATATAATATATATA [XGTACX_site529]”, the “gcPBM binding intensity (ln)” value was 7.61.
For “TATATATATATGTGCACACATATATAATATGTATAA [CACACA_site715]”, the “gcPBM binding intensity (ln)” value was 9.37.
“AAATAACACATATATACACACATATAACTATAATAT [CACACA_site7298]” was tested, and the “gcPBM binding intensity (ln)” value was 7.04.
“TAGAACAAATAAAACACACACATATATATATATATG [CACACA_site2768]” was tested, and the “gcPBM binding intensity (ln)” value was 7.32.
In the case of “GATAATTACGGACACACACACACACGCACAACTAAA [CACACA_site7254]”, the “gcPBM binding intensity (ln)” value was 7.78.
In the case of “ACTATCATTCATAGGTGTACCTAAATATATATATAT [XGTACX_site1696]”, the “gcPBM binding intensity (ln)” value was 9.41.
In the case of “CGAATATATTCTAGACGTACTATATAATATATATAT [XGTACX_site4953]”, the “gcPBM binding intensity (ln)” value was 8.51.
With TCTTTTTCTTCTTATGTGCACATCAATTATGCTTCT the “gcPBM binding intensity (ln)” value was 8.33.
“ATAATAAAAATATATACATGCATTATTATATATATA [TGCATGCA_site799]” was tested, and the “gcPBM binding intensity (ln)” value was 8.19.
For “CAACAATTTCGTCATACACACATTCAGAATATAGAT [CACACA_site7166]”, the “gcPBM binding intensity (ln)” value was 6.99.
For “TTATTTCGAAGAAAATGTACATATATAAATATATAC [XGTACX_site3308]”, the “gcPBM binding intensity (ln)” value was 6.92.
In the case of “ATAATATTTTTTAATTGTACGTTCCATTTTTTTAAA [XGTACX_site1227]”, the “gcPBM binding intensity (ln)” value was 7.05.
In the case of “TACATACATATATTATGTACATATTTTATTTTTATT [XGTACX_site1642]”, the “gcPBM binding intensity (ln)” value was 7.08.
For “TTTCTTTTAATAATTAAATATTTATTTATGATTATA [TGCATGCA_negctrl_site30]”, the “gcPBM binding intensity (ln)” value was 7.
AAAAAAAATTCGTGTGTGCGCATATATAATATATAA was tested, and the “gcPBM binding intensity (ln)” value was 8.39.
In the case of “AAGCATACATCAAGCACACACACACCCACAGAGACA [CACACA_site4362]”, the “gcPBM binding intensity (ln)” value was 7.15.
“TATGTAGTTTTAAAGTGTACTTATATATATTAATTG [XGTACX_site378]” was tested, and the “gcPBM binding intensity (ln)” value was 7.22.
“ATAAATATATATATCACACATATATAATTATATATA [CACACA_site4787]” was tested, and the “gcPBM binding intensity (ln)” value was 7.18.
In the case of “ATTGCAAGTTACTTGTGTACTTATAAGATTAAAAGA [XGTACX_site7696]”, the “gcPBM binding intensity (ln)” value was 7.01.
In the case of “TAATAATACCCAAGCACACACACACCCATATATATA [CACACA_site4831]”, the “gcPBM binding intensity (ln)” value was 7.41.
“AATATAAATAAAAACACACACAATGGTACATATATA [CACACA_site3671]” was tested, and the “gcPBM binding intensity (ln)” value was 7.02.
With “TACTGTGATAGCACCACACACGCAAAAGTGGGTATA [CACACA_site4749]” the “gcPBM binding intensity (ln)” value was 7.97.
For “TTTAAATCGTTAAAAACACACAAAAAAAATCAATTA [CACACA_site2519]”, the “gcPBM binding intensity (ln)” value was 6.74.
For “TCTATACCAGAAAAGGGTACATATTTTGGATTGAAC [XGTACX_site8402]”, the “gcPBM binding intensity (ln)” value was 7.
With “ATTATGCACCAACACACACACACACTCCTAAAAAAT [CACACA_site8822]” the “gcPBM binding intensity (ln)” value was 11.1.
With “TCTTATTCAAACGTAAAACGAAGAAGAAAAAAAAAA [CACACA_negctrl_site149]” the “gcPBM binding intensity (ln)” value was 6.83.
With “ATATACTATATTTTAACACACAAAAAAAAAAAATAT [CACACA_site1091]” the “gcPBM binding intensity (ln)” value was 6.98.
With “AAATTATATATATTACGTACATAGAACTTTACAGAA [XGTACX_site6646]” the “gcPBM binding intensity (ln)” value was 7.18.
In the case of “ATGTTACACCGACACACACACATAAAAAAACAAAAA [CACACA_site5750]”, the “gcPBM binding intensity (ln)” value was 7.37.
“ATAAATAAATAAATAAATAAATATACATATACATAT [CACACA_negctrl_site205]” was tested, and the “gcPBM binding intensity (ln)” value was 6.89.
For “TGGACAATTGTTTATTGTACTTAAATTTTATGTTCT [XGTACX_site8974]”, the “gcPBM binding intensity (ln)” value was 6.82.
With “AAGAAATAAAAAGAATGTACACAATATGTATTATAA [XGTACX_site4733]” the “gcPBM binding intensity (ln)” value was 7.06.
With “AGCATTTTAAGTTATACACACATTTTGAATCTATAT [CACACA_site7599]” the “gcPBM binding intensity (ln)” value was 6.89.
In the case of “CAAAAAACAACAGATCGTACAAAATATTATATATAT [XGTACX_site2285]”, the “gcPBM binding intensity (ln)” value was 7.87.
With “TATCCATATTTGTTCACACACACACCGATTTATATA [CACACA_site5888]” the “gcPBM binding intensity (ln)” value was 7.26.
For “TTGAAAAATGAGCACACACACAAATACATACATATT [CACACA_site3231]”, the “gcPBM binding intensity (ln)” value was 7.05.
For “TTTTAACAAAAAAAAAGAAAAGAAAAGAAAATAATA [XGTACX_negctrl_site530]”, the “gcPBM binding intensity (ln)” value was 6.54.
With “TTAACTCTGGAGAAAAGTACATAGTATCTGGTAACA [XGTACX_site4941]” the “gcPBM binding intensity (ln)” value was 6.94.
With “TATATTTATATCCACTTCGTTTAACGCACAGATATA [CACACA_negctrl_site954]” the “gcPBM binding intensity (ln)” value was 7.06.
With “ATTATAAAAATATATTGTACACAAAAATGTTTATAT [XGTACX_site5066]” the “gcPBM binding intensity (ln)” value was 7.01.
For “TGAGATATAAAAATATGTACTTATGTATAAATATTT [XGTACX_site7746]”, the “gcPBM binding intensity (ln)” value was 6.83.
“CCAAATTTATTTTGTAGTACTCCGTATAGATCAACA [XGTACX_site7945]” was tested, and the “gcPBM binding intensity (ln)” value was 6.95.
“AAGTTTTTTTTTAACACACACATAATAAAATAAATA [CACACA_site446]” was tested, and the “gcPBM binding intensity (ln)” value was 7.01.
“TGGTTTCAATAATTAATAAAATATATTATTGTGAAA [CACACA_negctrl_site442]” was tested, and the “gcPBM binding intensity (ln)” value was 6.74.
For “TCTAACATATAATATTCACACACATATATATATTAT [CACACA_site8236]”, the “gcPBM binding intensity (ln)” value was 7.15.
For “ATAATATATTTATAATGTACAAACCATTTGTATTAA [XGTACX_site4370]”, the “gcPBM binding intensity (ln)” value was 6.84.
For “ATTATTATTATATTTTGTACATATGTAACAATATAT [XGTACX_site5780]”, the “gcPBM binding intensity (ln)” value was 7.02.
In the case of “TAAATATGTGTATGTAGTACATAGTGTTTTTTTTTT [XGTACX_site3748]”, the “gcPBM binding intensity (ln)” value was 7.15.
For “TGCATATTACTTTTTCACATAAAAATGATCCGATTA [GTGCAC_negctrl_site526]”, the “gcPBM binding intensity (ln)” value was 6.99.
“ATATTATGAATTGTCACACATATATTTAAAAATGTA [CACACA_site4852]” was tested, and the “gcPBM binding intensity (ln)” value was 6.85.
For “GTTATACACATCAACACACACATACAACGTGGTGTA [CACACA_site6677]”, the “gcPBM binding intensity (ln)” value was 7.12.
“AAAATATAAAAATGAAGTACAAAAAAAAAAAAAAAA [XGTACX_site8132]” was tested, and the “gcPBM binding intensity (ln)” value was 6.92.
In the case of “AAAAAATGACTTAATATGAGCATATATTATGTTGTT [CACACA_negctrl_site1609]”, the “gcPBM binding intensity (ln)” value was 6.71.
For CATTAAAATTGAGAGATGCACTTTTTAAGACCTTGT, the “gcPBM binding intensity (ln)” value was 9.06.
